According to PubChem BioAssay AID686979 (National Center for Advancing Translational Sciences (NCATS), 2013):
The whole screen tested about 420,000 compounds, of which about 50,000 (12%) were called active. Inconclusive means that the source gave no clear call. Such entries were picked first, then a sample of the others. Calls come from the whole dose curve; as a rule, active = well fitted inhibition curve with a large enough effect; inconclusive = small, poorly fitted or top-dose-only effect; inactive = flat fitted curve, though single readings scatter. No potency is given beside an inconclusive call; the fits are too rough.

assay: qHTS for Inhibitors of human tyrosyl-DNA phosphodiesterase 1 (TDP1): qHTS in cells in presence of CPT; settings: chicken DT40 Tdp1-/-;hTDP1 cells + 20 nM CPT, ATP luminescence, 48 h; activity change, negative = growth inhibition: at 46.2 µM (top of the series) unless noted; note: nearly all actives have a fitted effect of over 55% in size
How it was run: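 Chicken DT40 Tdp1-/- cells stably complemented with human TDP1 were seeded at 400 cells/well in medium containing 20 nM camptothecin, exposed to pin-transferred compounds, and grown at 37 °C for at least 48 hr. Viability was read as ATP luminescence.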
% is set by controls: 0 for no effect and ±100 for the full control effect; potency is the fitted concentration of half-maximal effect; tags give direction and shape of the fitted curve.

Q: Which Potency does the source give for `Cc1cc(C)c(NC(=O)Cn2nc3c(cc2=O)CCCC3)c(C)c1` here?
A: Its Potency is “inactive”.

Q: With `O=C(NCCN1C(=O)S/C(=C\c2ccc(OC(F)F)cc2)C1=O)[C@@H]1CCCN1C(=O)c1cccs1` as the compound, how does the Potency read?
A: Its Potency is inconclusive [inhibitor, single point].

Q: Which Potency does the source give for `COc1cccc(/C=N/n2c(-c3ccco3)nc3ccccc3c2=O)c1` here?
A: Its Potency is inconclusive [inhibitor, single point].

Q: For `O=C(CS(=O)(=O)Cc1ccccc1)Nc1ccc(S(=O)(=O)N2CCCCCC2)cc1`, which Potency is on record?
A: Its Potency is inconclusive [inhibitor, single point].

Q: For `NC(N)=N/N=C/c1cccc(Cl)c1Cl`, which Potency is on record?
A: Its Potency is inconclusive [inhibitor, single point].

Q: For `O=C(Cn1ncc2c1-c1ccccc1OC2)N1CCc2ccccc21`, which Potency is on record?
A: Its Potency is inconclusive [inhibitor, single point].

Q: Which Potency does the source give for `CC(C)CC(=O)N1CCN(Cc2ccc(C(F)(F)F)cc2)CC1` here?
A: The Potency was inconclusive [inhibitor, single point].

Q: For `C=CCNc1nc(-c2c(C)nc3ncccn23)cs1`, which Potency is on record?
A: The Potency was “inactive”.

Q: For `CN(Cc1ccccc1)C(=O)c1cc2ccccc2o1`, which Potency is on record?
A: The Potency was “inactive”.

Q: Which Potency does the source give for `COc1ccc(C(CNC(=O)c2ccc(S(=O)(=O)N3CC(C)CC(C)C3)cc2)N(C)C)cc1` (centres undefined) here?
A: Its Potency is inconclusive [inhibitor, partial curve, poor fit].

Q: For `NC(=O)/C=C/C(=O)Nc1ccc(Cl)cc1`, which Potency is on record?
A: The Potency was active: 3.26 µM.

Q: With `CCN(c1ccc(NC(=O)CSCc2c(C)noc2C)cc1)C(C)C` as the compound, how does the Potency read?
A: Its Potency is inconclusive [inhibitor, single point].

Q: Which Potency does the source give for `COc1cccc(CN(C)S(=O)(=O)c2cccs2)c1` here?
A: Its Potency is inconclusive [inhibitor, single point].

Q: For `COc1ccc(S(=O)(=O)N2CCCCCC2)cc1C(=O)N(C)CC(=O)Nc1ccc(Cl)c(Cl)c1`, which Potency is on record?
A: Its Potency is inconclusive [inhibitor, single point].

Q: With `CCOc1ccc(NC(=O)N(CCN2CCOCC2)Cc2ccc3c(c2)CCCN3CC)cc1` as the compound, how does the Potency read?
A: The Potency was inconclusive [inhibitor, single point].

Q: For `CC(O)(c1ccc(F)c(F)c1)c1nc(-c2cc(F)cc(F)c2)cs1` (centres undefined), which Potency is on record?
A: The Potency was inconclusive [inhibitor, single point].

Q: With `COc1cc(OC)cc(C(=O)Nc2cc3nn(-c4ccccc4)nc3cc2Cl)c1` as the compound, how does the Potency read?
A: The Potency was active: 11.6 µM.

Q: For `Cc1ccsc1/C=N/NC(=O)c1ccc2ccccc2c1`, which Potency is on record?
A: The Potency was active: 14.6 µM.

Q: Which Potency does the source give for `COc1cc2c(cc1OC)-c1cc(NC3CCCCCC3)nc(=O)n1CC2` here?
A: Its Potency is inconclusive [inhibitor, partial curve, poor fit].

Q: Which Potency does the source give for `COc1ccccc1C(=O)NC1CCCCCCC1` here?
A: The Potency was “inactive”.

Q: With `CCCOc1cccc(OCCSc2nc(C)cc(=O)[nH]2)c1` as the compound, how does the Potency read?
A: Its Potency is “inactive”.

Q: Which Potency does the source give for `C[C@@H]1Cc2c(O)c(O)cc(O)c2C(=O)O1` here?
A: The Potency was inconclusive [inhibitor, single point].

Q: For `CCOC(=O)c1c(NC(=O)c2nn(CC)cc2Br)c(C#N)cn1-c1ccccc1`, which Potency is on record?
A: Its Potency is inconclusive [inhibitor, single point].

Q: With `Cc1cc(C)n2c(NC3CCCC3)c(-c3cc4ccccc4o3)nc2n1` as the compound, how does the Potency read?
A: Its Potency is inconclusive [inhibitor, single point].

Q: For `Cc1cc(C)c(NC(=O)CS(=O)CC(=O)Nc2ccc(F)cc2F)c(C)c1` (centres undefined), which Potency is on record?
A: The Potency was “inactive”.

Q: With `COCC1CCCN(Cc2ccc3c(c2)CN(C(=O)c2cn4ccc(C)cc4n2)CCO3)C1` (centres undefined) as the compound, how does the activity change, negative = growth inhibition read?
A: Its activity change, negative = growth inhibition is inactive: -11.2% [at 9.04 µM].

Q: With `C=C(c1ccccc1C)[n+]1ccccc1` as the compound, how does the Potency read?
A: The Potency was “inactive”.

Q: Which Potency does the source give for `COc1ccc(OCCOC(=O)CN2C(=O)NC3(CCCC3)C2=O)cc1` here?
A: Its Potency is inconclusive [inhibitor, full curve].

Q: Which Potency does the source give for `CCOC(=O)C(CC)n1cnc2c(nnn2-c2ccc(OC)cc2)c1=O` (centres undefined) here?
A: The Potency was “inactive”.

Q: For `CCOc1ccc(-c2oc3ccccc3c(=O)c2O)cc1OCC`, which Potency is on record?
A: The Potency was inconclusive [inhibitor, single point].

Q: With `CC(O)(c1cccc(F)c1)c1nc(-c2ccccc2)cs1` (centres undefined) as the compound, how does the Potency read?
A: The Potency was active: 20.6 µM.

Q: For `CCN(CC)S(=O)(=O)c1ccc(OCC2CCCCO2)c([N+](=O)[O-])c1` (centres undefined), which Potency is on record?
A: The Potency was inconclusive [inhibitor, single point].

Q: With `COc1ccc(Cl)cc1NC(=O)CN(C)C(=O)c1cc2ccccc2cc1O` as the compound, how does the Potency read?
A: The Potency was inconclusive [inhibitor, single point].

Q: For `O=C1CC[C@H](O)CCN1[C@H](CSc1ccccc1)Cc1ccccc1`, which Potency is on record?
A: Its Potency is inconclusive [inhibitor, single point].

Q: For `COc1ccccc1NC(=O)C1=C(C)Nc2c(C(=O)Nc3ccc(F)cc3)cnn2C1c1ccc(Cl)cc1` (centres undefined), which Potency is on record?
A: The Potency was active: 13 µM.

Q: With `CC(=O)N1C[C@H]2CON(C)[C@H]2C[C@H]1c1ccc(-c2ccccc2)cc1` as the compound, how does the Potency read?
A: The Potency was inconclusive [inhibitor, partial curve].

Q: With `c1ccc(Sc2ncnc3ccccc23)cc1` as the compound, how does the Potency read?
A: The Potency was inconclusive [inhibitor, single point].

Q: For `CC(c1ccco1)N(C(=O)c1ccccc1NS(=O)(=O)c1cccc([N+](=O)[O-])c1)c1ccccn1` (centres undefined), which Potency is on record?
A: The Potency was inconclusive [inhibitor, single point].

Q: For `CC(=O)Nc1ccc(NC(=O)CSc2nnc(CC(C)O)n2-c2ccccc2)cc1` (centres undefined), which Potency is on record?
A: The Potency was “inactive”.

Q: For `COc1ccc(S(=O)(=O)N2CCOC2CNC(=O)C(=O)NCc2ccco2)cc1C` (centres undefined), which Potency is on record?
A: The Potency was inconclusive [inhibitor, single point].

Q: For `CN(C)C(=O)c1cccc(COc2ccc(N3C(N)=NC(N)=NC3(C)C)cc2Cl)c1`, which Potency is on record?
A: Its Potency is active: 0.0184 µM.

Q: Which Potency does the source give for `COc1cccc(/C=N/NC(=O)C(=O)N2CCCCCC2)c1O` here?
A: The Potency was inconclusive [inhibitor, single point].

Q: For `CC1(C)Nc2ccc(O)cc2-c2c1ssc2=S`, which Potency is on record?
A: The Potency was active: 0.731 µM.

Q: With `O=C(Nc1ccc(S(=O)(=O)Nc2ccccc2)cc1)N1CCCC1` as the compound, how does the Potency read?
A: The Potency was “inactive”.

Q: With `CCOc1cc(/C=N/N2C(=O)NC3(CCCCC3)C2=O)cc(Br)c1O` as the compound, how does the Potency read?
A: The Potency was “inactive”.

Q: For `CC(C)(C)c1ccc(CC(=O)N2CCC2(C)C(=O)NCc2ccc3c(c2)OCO3)cc1` (centres undefined), which Potency is on record?
A: Its Potency is inconclusive [inhibitor, single point].

Q: For `Nc1nnc2c(C(F)(F)F)nc3ccccc3n12`, which Potency is on record?
A: The Potency was inconclusive [inhibitor, single point].

Q: Which Potency does the source give for `O=C(OCCOc1ccccc1)c1n[nH]c2ccccc12` here?
A: Its Potency is “inactive”.

Q: Which Potency does the source give for `O=C(/C(=C/c1ccncc1)n1ccnc1)c1ccc(Cl)cc1Cl` here?
A: The Potency was active: 16.4 µM.

Q: With `O=C(CSc1ccncc1)Nc1ccc2ccccc2c1` as the compound, how does the Potency read?
A: Its Potency is “inactive”.

Q: With `COc1ccc(Cl)cc1NC(=O)COC(=O)c1c(-c2ccccc2)noc1C` as the compound, how does the Potency read?
A: The Potency was inconclusive [inhibitor, single point].

Q: For `CCc1nnc(NC(=O)c2cccc(S(=O)(=O)N3CCN(C(C)=O)CC3)c2)s1`, which Potency is on record?
A: The Potency was “inactive”.

Q: With `Cc1ccc(C(=O)n2nc(-c3ccco3)nc2N)cc1` as the compound, how does the Potency read?
A: Its Potency is inconclusive [inhibitor, partial curve, poor fit].

Q: Which Potency does the source give for `Nc1ncnc2c1ncn2C1CCCO1` (centres undefined) here?
A: The Potency was “inactive”.

Q: For `Cc1ccc(NC(=O)C2CC(=O)N(Cc3ccccc3)C2)nc1` (centres undefined), which Potency is on record?
A: Its Potency is “inactive”.

Q: Which Potency does the source give for `Cn1c(=O)c2c(nc(SCC(=O)Nc3ccc(OC(F)(F)F)cc3)n2Cc2cccc(C(F)(F)F)c2)n(C)c1=O` here?
A: Its Potency is active: 10.3 µM.

Q: With `Cc1noc(C)c1S(=O)(=O)N1CCCCC1` as the compound, how does the Potency read?
A: Its Potency is “inactive”.

Q: Which Potency does the source give for `Cc1[nH]c2ccccc2c1C(=O)C(C)Sc1nc2ccccc2c(=O)n1Cc1cccnc1` (centres undefined) here?
A: Its Potency is active: 7.94 µM.

Q: With `N#Cc1ccc(-c2ccc(OCC(O)CN3CCCCC3)cc2)cc1` (centres undefined) as the compound, how does the Potency read?
A: The Potency was active: 23.1 µM.

Q: For `Cc1ccc(-c2cnc(C(O)c3cc(Cl)cc(Cl)c3)[nH]2)cc1` (centres undefined), which Potency is on record?
A: Its Potency is inconclusive [inhibitor, single point].

Q: With `Cc1ccc(CN2CCN(/N=C/c3cccs3)CC2)cc1` as the compound, how does the Potency read?
A: The Potency was “inactive”.

Q: With `COc1ccc(S(=O)(=O)N(CCc2ccccc2)CC(=O)N/N=C/c2ccc3c(c2)OCO3)cc1` as the compound, how does the Potency read?
A: The Potency was inconclusive [inhibitor, single point].

Q: For `CCCS(=O)(=O)NC(=O)C1(C)CCN(C(=O)c2cncc(Br)c2)C1` (centres undefined), which Potency is on record?
A: Its Potency is “inactive”.

Q: Which Potency does the source give for `COc1ccc(S(=O)(=O)NCCSCc2ccc(Cl)cc2)cc1NC(C)=O` here?
A: The Potency was inconclusive [inhibitor, single point].

Q: For `O=S1(=O)c2cccc3cccc(c23)N1CCCN1CCN(c2ccc(F)cc2)CC1`, which Potency is on record?
A: The Potency was inconclusive [inhibitor, single point].

Q: Which Potency does the source give for `Nc1ccn([C@@H]2O[C@H](CO)[C@@H](O)[C@@H]2O)c(=O)n1` here?
A: The Potency was active: 0.116 µM.

Q: With `Cc1ccc(-c2nc(C(=O)NCCCN3CCOCC3)cc3c2[nH]c2ccccc23)cc1` as the compound, how does the Potency read?
A: The Potency was active: 3.26 µM.

Q: With `Cc1ccccc1-n1nnnc1SC(C)C(=O)Nc1ccc(N2CCN(C)CC2)cc1` (centres undefined) as the compound, how does the Potency read?
A: The Potency was inconclusive [inhibitor, single point].

Q: With `COc1ccc(N2CCN(c3nc4ccccc4n3CC(=O)c3ccccc3)CC2)cc1` as the compound, how does the Potency read?
A: Its Potency is inconclusive [inhibitor, partial curve].

Q: Which Potency does the source give for `O=S1(=O)N=C2CCCCCN2C(c2ccccc2)N1` (centres undefined) here?
A: Its Potency is “inactive”.

Q: Which Potency does the source give for `Cc1ccc(S(=O)(=O)Nc2cc3c(cc2C)n(C)c(=O)c(=O)n3C)cc1` here?
A: Its Potency is “inactive”.

Q: With `COc1ccc(N(CCOc2ccccc2)S(=O)(=O)c2ccccc2)cc1` as the compound, how does the Potency read?
A: The Potency was inconclusive [inhibitor, single point].

Q: For `Cc1ccc(CSC2=Nc3ccccc3C3=NC(CCC(=O)N4CCN(c5ccccc5)CC4)C(=O)N23)cc1` (centres undefined), which Potency is on record?
A: Its Potency is active: 20.6 µM.

Q: With `Cc1[nH][nH]c(=O)c1C(c1ccc(-c2ccc(F)cc2)o1)c1c(C)[nH][nH]c1=O` as the compound, how does the Potency read?
A: Its Potency is inconclusive [inhibitor, single point].
